Whole data set: some 110,000 compounds, median “z-score” near -0.1, cut for the highest 2% near 2. Some of the results follow.

The assay concerns the target Metabotropic glutamate receptor 8 (Rattus norvegicus) (UniProt P70579). The assay can be described thus: mGluR8 Gi/Go-coupled signaling modulation – cell-based, rat, thallium flux, HTS, primary screen (AID 488969). The settings on record: HEK293 rat mGluR8, GIRK (G protein-gated inwardly rectifying potassium channel) thallium flux, FluoZin2; at 10 µM; stronger effect = higher value; submaximal glutamate (EC20) added with thallium.
UniProt P70579, sequence (P70579 whole entry, looked up): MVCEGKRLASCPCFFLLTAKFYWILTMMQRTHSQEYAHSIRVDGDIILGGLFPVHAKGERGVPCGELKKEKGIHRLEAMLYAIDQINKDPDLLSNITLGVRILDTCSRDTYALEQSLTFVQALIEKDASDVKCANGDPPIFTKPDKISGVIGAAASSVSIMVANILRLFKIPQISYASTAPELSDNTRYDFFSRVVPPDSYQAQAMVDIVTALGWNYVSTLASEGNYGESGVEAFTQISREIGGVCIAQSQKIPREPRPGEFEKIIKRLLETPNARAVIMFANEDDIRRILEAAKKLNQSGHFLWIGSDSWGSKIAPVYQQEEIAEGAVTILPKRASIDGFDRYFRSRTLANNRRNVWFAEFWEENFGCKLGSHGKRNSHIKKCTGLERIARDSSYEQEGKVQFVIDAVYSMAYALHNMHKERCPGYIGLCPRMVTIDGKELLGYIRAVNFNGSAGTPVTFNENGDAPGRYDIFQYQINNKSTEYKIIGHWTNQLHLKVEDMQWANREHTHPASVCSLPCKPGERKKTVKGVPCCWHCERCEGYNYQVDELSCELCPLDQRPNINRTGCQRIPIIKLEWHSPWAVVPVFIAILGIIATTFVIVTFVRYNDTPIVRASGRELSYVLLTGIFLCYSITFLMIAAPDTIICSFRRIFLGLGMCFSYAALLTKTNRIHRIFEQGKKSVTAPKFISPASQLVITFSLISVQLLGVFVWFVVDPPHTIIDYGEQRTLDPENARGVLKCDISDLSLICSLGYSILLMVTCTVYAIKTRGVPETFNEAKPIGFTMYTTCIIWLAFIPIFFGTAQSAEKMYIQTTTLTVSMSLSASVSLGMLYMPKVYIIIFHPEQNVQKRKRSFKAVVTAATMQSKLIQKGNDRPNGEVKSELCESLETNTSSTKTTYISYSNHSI
`O=C(CSc1nnc(-c2ccccc2)o1)N1CCc2ccccc2C1` had a z-score of -0.646.

Molecule `N#Cc1nc(COc2cccc(Cl)c2)oc1NCc1ccncc1` came in with a z-score of 0.431.

Molecule `Clc1ccc(-c2csc(N3CCC(c4ccccc4)C3)n2)cc1` (stereo not given) registered a z-score of -0.095.

For the molecule `CC(C)(C)N(NC(=O)Nc1ccccc1)C(=O)c1ccccc1`, the z-score was -0.111.

As to `CC(=O)NC(Cc1ccccc1)C(=O)NC1CCN(C(=O)NC2CCCCC2)CC1` (stereo not given), the z-score worked out at 0.136.

In the case of `O=C(NC1CCCc2ccccc21)C1CCN(S(=O)(=O)c2cccc(C(F)(F)F)c2)CC1` (stereo not given), the z-score is -0.154.

`O=C(CSc1nnc2scc(-c3ccccc3)n12)Nc1nsc(-c2ccccc2)n1` displayed a z-score of -0.713.

Molecule `Cn1cc([N+](=O)[O-])c(C(=O)N/N=C/c2ccc([N+](=O)[O-])cc2)n1` registered a z-score of -0.282.

Molecule `COc1ccc(OC)c2sc(NC(=O)c3ccc(Cl)s3)nc12` registered a z-score of -0.107.

In turn, `CCC(Sc1nncn1C)C(=O)Nc1ccccc1OC` (stereo not given) displayed a z-score of 0.202.

Turning to `O=C(NCc1ccccn1)C1CC(=O)N(C2CCCC2)C1` (stereo not given), the z-score is -0.08.

`CCOC(=O)c1nnn(CC(=O)N2N=C(c3cc(C)ccc3C)CC2c2ccc(OC)cc2)c1C(=O)OCC` (stereo not given) showed a z-score of -0.378.

`COc1ccccc1/C=N/NC(=O)CCSc1ccccc1`: the z-score amounted to 0.684.

`Cc1nc2ccccn2c1C(=O)N/N=C/c1ccc(CNC(=O)C(=O)Nc2ccccc2)o1` returned a z-score of 1.11.

`COc1ccc(C)cc1-n1nnnc1SC/C(O)=C(\C#N)c1nc2ccccc2[nH]1` returned a z-score of 0.451.

Consider `Cc1cc(Br)ccc1NC(=O)CCSc1ccccc1`, for which the z-score is 0.232.

For the molecule `CCOC(=O)c1c(N=CN(C)C)c(C#N)c2n1CCCC2`, the z-score is -0.0106.

With `CCOc1ccc(NC(=O)CN2CCN(C3c4ccccc4-c4ccccc43)CC2)cc1`, the z-score is -0.223.

Molecule `CCCCCN(C(=O)NC(=O)Nc1ccccc1C)S(C)(=O)=O` showed a z-score of 0.212.

Consider `Nc1nncn1C(=O)c1c(Cl)cccc1Cl`, for which the z-score was found to be 0.0467.

For `Cc1c(/C=N/NC(=O)c2ccccc2O)c2ccccn2c1C(=O)c1ccc(F)cc1`, the z-score was -0.231.

As for `O=C(CCc1ccccc1)Nc1ccccc1F`, the z-score was -0.0735.

`CCN1CCN(CC(=O)Nc2ccc(Cl)c(Cl)c2)C(=O)C1=O` gave a z-score of -0.0158.

`CCOc1ccc2[nH]c(S(=O)(=O)CC)nc2c1Cl` gave a z-score of -0.23.

For `O=C1NCCCCC1NC1CC(=O)N(c2ccccc2)C1=O` (stereo not given), the z-score is -0.113.

`CN(c1ccc(OCC(=O)N2CCC(C(N)=O)CC2)cc1)S(=O)(=O)c1cccs1` gave a z-score of -0.161.

In the case of `Cc1ccc(N(CC(=O)Nc2cc(Cl)ccc2Oc2ccccc2)S(C)(=O)=O)c(C)c1`, the z-score was -0.131.

`COCC(=O)NCCNc1nc2ccc(C)cc2cc1C` gave a z-score of -0.179.

For `O=C(CCN1C(=O)c2ccccc2C1=O)Nc1cccc(S(=O)(=O)N2CCCCC2)c1`, the z-score was -0.322.

`CCOC(=O)COc1nc(C)c(Br)c(OC)n1` showed a z-score of -0.464.

The record behind these values is PubChem BioAssay AID488969 (Vanderbilt High Throughput Screening Facility, 2010).
